The text below walks through data of article PMC9574860, “Chemical Toolkit for PARK7: Potent, Selective, and High-Throughput” (Journal of Medicinal Chemistry, 2022).

The structures appear in SMILES notation. The whole screen tested about 7,900 compounds, of which about 400 (5.1%) showed an effect of 50% or more. The list shows a part of the results.

Sequence of Parkinson's disease protein 7 (PARK7/DJ1) (Q99497 whole entry, looked up, the tested form may be a part): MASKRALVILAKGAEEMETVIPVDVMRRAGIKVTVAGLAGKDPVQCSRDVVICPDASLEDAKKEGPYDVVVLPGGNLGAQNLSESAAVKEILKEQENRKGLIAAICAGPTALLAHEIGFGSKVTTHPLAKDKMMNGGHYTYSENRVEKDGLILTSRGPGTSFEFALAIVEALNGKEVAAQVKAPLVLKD

The assay addresses Parkinson's disease protein 7 (PARK7/DJ1) (human, UniProt Q99497). The experiment in a line: primary screen, percent inhibition; read as competition with a fluorescent probe by fluorescence polarization; higher = more effect of the substance. The following applies: 100 µM. The procedure, abridged:
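Fluorescence-polarization probe displacement (JYQ-107, 20 nM final, 2 h) after 2 h preincubation of PARK7 (0.2 μM final) with each fragment at 100 μM final. Read-out ex/em 480/520 nm; remaining activity derived from FP signal loss relative to reference controls.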
Take `CN(C)c1ccc(C=C(C#N)C(N)=O)cc1`: the Inhibition % is on record as 5.91%. Turning to `C=CC(=O)N1CCC(C(=O)O)(c2cccc(C)c2)CC1`, the Inhibition % is 0.629%.

In the case of `Cc1cc(C(=O)CCl)c(C)n1-c1ccc2c(c1)OCCO2`, the Inhibition % is on record as 63.9%. Regarding `CS(=O)(=O)OC1CCOC2(CCC2)C1` (stereo not shown), the Inhibition % worked out at 9.05%.

`CC1CC(Sc2nnc(-c3cccs3)o2)C(=O)O1` (stereo not shown): the Inhibition % is reported as 18%. For `Cc1ncc(C=CC(=O)N2CCC[C@@H]2C(=O)O)s1`, the Inhibition % came to 4.11%. Turning to `O=C(NC1CCCC1)c1ccc(N2C(=O)CCC2=O)cc1`, the Inhibition % worked out at 2.85%. Turning to `C=CC(=O)NC1(c2noc(CC)n2)CCCC1`, the Inhibition % stood at 7.72%. As for `N#Cc1cc(C(=O)O)c[nH]1`, the figure is 4.58%; as for `CN(Cc1cc(C#N)ccc1F)C(=O)CCl`, 50.3%; as for `C=CC(=O)Nc1ccc(OC2CCCC2)nc1`, 7.53%.

As for `C=CC(=O)NC(c1cccc(C(F)(F)F)c1)c1nnc[nH]1` (stereo not shown), the Inhibition % is 28.1%. The value for `N#Cc1nn[nH]c1Cl` was 7.91%; that for `CC(C)NC(=O)C(C#N)=Cc1ccc(OC(C)C)cc1` was 4.04%.

Regarding `O=C(NCC1CCS(=O)(=O)CC1)c1cccnc1S`, the Inhibition % is -0.307%.

On to `Cc1nc(C=CC(=O)N2CCc3sccc3C2)cs1`, for which the Inhibition % was found to be 4.01%. As to `N#Cc1ccc(N2CCCC(C(N)=O)C2)cn1` (stereo not shown), the Inhibition % turned out to be 6.47%. `Cc1cc(C)n(CC2CN(C3CC(C)OC3=O)CCO2)n1` (stereo not shown): the Inhibition % is recorded as 5.93%.

For `O=S(=O)(c1ccc(Cl)cc1)n1cccc1`, the Inhibition % is 2.87%. Consider `N#Cc1ccc(C(=O)O)[nH]1`, for which the Inhibition % is listed as 7.43%. For `C=CC(=O)NC1c2ccccc2CCC1N(C)C` (stereo not shown), the Inhibition % is 6.75%. Regarding `N#Cc1nn(C2CCCCC2O)c2ccccc12` (stereo not shown), the Inhibition % came to 0.835%. As for `Cc1ccc(S(=O)(=O)OC2CCS(=O)(=O)C2)cc1` (stereo not shown), the figure is -6.46%. The value for `Cc1cc(NC(=O)c2c[nH]c(C#N)c2)ccc1OCCO` was 4.15%; that for `C=CC(=O)NC1CC2CCC1C2` (stereo not shown) was 3.12%. For `C=CC(=O)N1CCOc2ccccc21`, the Inhibition % came out at 9.1%. For the compound `C=CC(=O)N(C)C1CS(=O)(=O)C1`, the Inhibition % stood at 5.08%. As to `N#Cc1cccc(NC[C@H]2CCO[C@@H]2c2ccccc2)n1`, the Inhibition % was 3%. On to `C=CC(=O)NC(CC1CCCCC1)c1ncccn1` (stereo not shown), for which the Inhibition % amounted to 8.7%. Turning to `O=C(CCl)N(C1CC1)C1CCS(=O)(=O)C1` (stereo not shown), the Inhibition % was found to be 5.73%.

As to `Cc1cc(Br)ccc1NC(=O)CCl`, the Inhibition % amounted to 19.7%. Turning to `COc1cc(C(C)Nc2ccc(C#N)nc2)ccc1F` (stereo not shown), the Inhibition % is reported as 2.94%. On to `O=C1NC(C2CC2)C1C1CC1` (stereo not shown), for which the Inhibition % amounted to 6.35%. Turning to `COc1ccc(C2=CCN(C(=O)CCl)CC2)cc1`, the Inhibition % worked out at 78.7%. Turning to `CCOC1CC(c2nc(-c3cccc(B(O)O)c3)no2)C1` (stereo not shown), the Inhibition % was -4.81%. For the compound `C=CC(=O)NCc1ccc(S(=O)(=O)N2CCOCC2)s1`, the Inhibition % was 6.6%. On to `C=CC(=O)N1CCN(C)CC1c1ccccc1` (stereo not shown), for which the Inhibition % was 8.61%.

With `C=CC(=O)NC1CCSC1C` (stereo not shown), the Inhibition % turned out to be 9.61%. Take `C=CC(=O)N(C)CC(=O)Nc1csc(C)n1`: the Inhibition % was 7.47%.

For the compound `CC1(C)OB(CC2CCNCC2)OC1(C)C.Cl`, the Inhibition % amounted to 2.79%.

For `COC(=O)c1ccccc1N(C)C(=O)CCl`, the Inhibition % amounted to 6.59%. For the compound `O=C(NCC1CCC(O)C1)c1ccc(B(O)O)cc1` (stereo not shown), the Inhibition % turned out to be 4.59%. Regarding `C=CC(=O)Nc1cnc(C)nc1C1CC1`, the Inhibition % was found to be 5.59%. Take `C=CC(=O)Nc1ccc(Cl)c(C#N)c1`: the Inhibition % was found to be 2.87%. With `O=C(Cc1cccc(F)c1)N1CCCCC1C1OCCO1` (stereo not shown), the Inhibition % amounted to 12.6%.

`C=CC(=O)NCC1CC(C)(C)CO1` (stereo not shown): the Inhibition % stood at 2.97%. As for `Cc1nc(C)c(CNc2ccc(C#N)nc2)s1`, the figure is 3.4%.

Regarding `O=C(c1cccnc1S)N1CCc2ccc(O)cc2C1`, the Inhibition % is 19.6%. As for `Nn1cc(-c2ccccc2)nc1SC1CCOC1=O` (stereo not shown), the Inhibition % is recorded as 15.6%. On to `N#Cc1ncn(CC2CCCO2)n1` (stereo not shown), for which the Inhibition % was found to be 1.91%. On to `CC(C)NC(=O)C(C#N)=Cc1cccc(O)c1`, for which the Inhibition % was 19.6%. Turning to `Cc1ccc(C=CC(=O)N2CC(=O)Nc3ccccc32)o1`, the Inhibition % turned out to be 15.2%. Take `N#Cc1cccc(N2CCC2=O)c1`: the Inhibition % is recorded as 5.65%.

Consider `CN1C(=O)CCc2cc(B3OC(C)(C)C(C)(C)O3)ccc21`, for which the Inhibition % is given as 5.05%.

For `CN1CCC(n2cc(-c3ccc(S(=O)(=O)F)cc3)nn2)C1=O` (stereo not shown), the Inhibition % turned out to be 9.08%. For `Cc1ccc(NC(=O)CCl)c([N+](=O)[O-])c1`, the Inhibition % is listed as 7.84%. For the compound `CN(Cc1ccc2c(c1)OCCO2)C(=O)CCl`, the Inhibition % came to 91.9%. `CC(C)C(=O)Nc1ccc(C(=O)CCl)cc1`: the Inhibition % is 2.39%. For `CN(C)c1cc(B2OC(C)(C)C(C)(C)O2)ccn1`, the Inhibition % came to 12.6%. As to `O=C(O)C1(NS(=O)(=O)C=Cc2ccccc2)CCCC1`, the Inhibition % is listed as 8.31%. Regarding `COc1nccc(B2OC(C)(C)C(C)(C)O2)c1Br`, the Inhibition % is reported as 1.49%. For the compound `C=CC(=O)NC1CC(=O)N(C)C1` (stereo not shown), the Inhibition % turned out to be 16.5%.

As to `C=CC(=O)NCc1cc(OC)no1`, the Inhibition % is on record as 6.84%. As for `CC1(c2cccc(C(F)(F)F)c2)CO1` (stereo not shown), the figure is 8.47%; as for `NC(=O)c1c(NC(=O)CCl)sc2c1CCC2`, 38.6%. Take `COC1CCC(=CC#N)CC1` (stereo not shown): the Inhibition % is 4.49%. As for `Cc1ccc(C=CC#N)cc1`, the figure is 5.61%. Take `CCn1c(SC2CCOC2=O)nc2ccccc2c1=O` (stereo not shown): the Inhibition % turned out to be 33.4%. The value for `Cc1ccc(NC(=O)CCl)cc1S(=O)(=O)N(C)C` was 10.4%.

As for `Cc1ccc(S(=O)(=O)N2CCCC(C3OCCO3)C2)cc1` (stereo not shown), the Inhibition % is listed as 7.16%.

On to `C=CC(=O)NC1(c2ccc(OC)c(F)c2)CCOCC1`, for which the Inhibition % is 11.7%. With `C#CCN(C)S(=O)(=O)c1ccc(C#N)nc1`, the Inhibition % was 5.89%.

`OB(O)c1cc(F)ccc1OCC1CCCO1` (stereo not shown): the Inhibition % worked out at 5.41%.

On to `C=CC(=O)Nc1ccc2c(c1)OCC(=O)N2C`, for which the Inhibition % came to 40.9%. In the case of `C#CC(=O)c1ccccc1`, the Inhibition % is listed as -3.07%. As for `C=CC(=O)N1CCOC(c2cccs2)C1` (stereo not shown), the Inhibition % was 8.52%. Consider `CC1CC(Sc2nnc(-c3ccco3)o2)C(=O)O1` (stereo not shown), for which the Inhibition % was 1.96%. `Sc1ncnc2ccsc12`: the Inhibition % was found to be 7.25%. For `CN(C)CC=CC(=O)NCC1(O)CCCc2ccccc21` (stereo not shown), the Inhibition % is listed as 7.43%.
